Source: PubChem BioAssay AID1745853 (National Center for Advancing Translational Sciences (NCATS), 2022)
This is one part of the list. The main result of the screen is listed elsewhere. These columns were measured beside it and carry no call.

Key:
Experiment in all cases: Primary Screen for Target Class Profiling of Small Molecule Inhibitors of Methyltransferases
[1] = target: Glycine N-methyltransferase (Homo sapiens) (UniProt Q14749); settings: purified enzyme, MTase-Glo SAH luminescence; measured here: GNMT inhibition; at 40 µM; stronger effect = lower value
Summary of the method: (§1)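 Each enzyme was assayed with SAM and its substrate. SAH formation detected by MTase-Glo luminescence; single-point 40 uM screen[…].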

[2] = target: Guanidinoacetate N-methyltransferase (Homo sapiens) (UniProt Q14353); settings: purified enzyme, MTase-Glo SAH luminescence; measured here: GAMT inhibition; at 40 µM; stronger effect = lower value
Summary of the method: as §1

[3] = target: Histamine N-methyltransferase (Homo sapiens) (UniProt P50135); settings: purified enzyme, MTase-Glo SAH luminescence; measured here: HNMT inhibition; at 40 µM; stronger effect = lower value
Summary of the method: as §1

[4] = target: Nicotinamide N-methyltransferase (Homo sapiens) (UniProt P40261); settings: purified enzyme, MTase-Glo SAH luminescence; measured here: NNMT inhibition; at 40 µM; stronger effect = lower value
Summary of the method: as §1

[5] = target: Phenylethanolamine N-methyltransferase (Homo sapiens) (UniProt P11086); settings: purified enzyme, MTase-Glo SAH luminescence; measured here: PNMT inhibition; at 40 µM; stronger effect = lower value
Summary of the method: as §1
% is set by controls: 0 for no effect and ±100 for the full control effect.

Row | SMILES | activity change, negative = inhibition [1] [%] | activity change, negative = inhibition [2] [%] | activity change, negative = inhibition [3] [%] | activity change, negative = inhibition [4] [%] | activity change, negative = inhibition [5] [%]
1 | Cn1c(=O)c2ccc(C(=O)NC3CCCC3)cc2n2c(SCc3c(F)cccc3Cl)nnc12 | -6.15 | -2.57 | -0.198 | 0.825 | -3.79
2 | C[C@@H]1O[C@@H](OC[C@H]2O[C@@H](OCC3CCC4CC3C4(C)C)[C@H](O)[C@@H](O)[C@@H]2O)[C@H](O)[C@H](O)[C@H]1O (stereo not given in full) | 3.61 | 3.55 | 10.7 | -8.59 | 6.49
3 | COC(=O)N(C)Cc1cccc(N2CCN(C(=O)OC(C)(C)C)CC2)c1F | -7.58 | -11.6 | -4.29 | -16.9 | -14.7
4 | Cc1cc2nc(NCCCO)n(CC(=O)c3cc(C(C)(C)C)c(O)c(C(C)(C)C)c3)c2cc1C | 2.97 | 11.5 | 0.067 | -17 | -2.25
5 | COc1ccccc1CNC(=O)c1ccc2c(=O)nc3c(-c4ccc(Cl)cc4)n[nH]n3c2c1 | -16.8 | -8.55 | -7.93 | -18.6 | -5.17
6 | C=C1CCC2C(C)(COC(C)=O)CCCC2(C)C1CCC(C)CC(=O)O (stereo not given) | -11.5 | -5.68 | 9.7 | -25.1 | -12.6
7 | COC(=O)c1ccc2c(c1)C1C=CCC1C(c1ccc(Br)cc1)N2 (stereo not given) | -9.39 | -0.291 | -11.7 | -6.05 | -17.5
8 | CCCn1c(=O)c2ccc(C(=O)NC3CCCC3)cc2n2c(=O)n(CC(=O)c3ccc(Cl)cc3)nc12 | 1.78 | 6.5 | 1.47 | 3.13 | 1.12
9 | COc1ccc(CCC(=O)N2CCCC(c3nc(-c4ccccc4)no3)CCNC(=O)CC2)cc1 (stereo not given) | -2.15 | 1.54 | 0.993 | -4.77 | 6.39
10 | Cc1ccc(C)c(N2CCN(C(=O)c3ccc4c(=O)nc5c(-c6ccc(F)cc6)n[nH]n5c4c3)CC2)c1 | -14.7 | -3.72 | -6.61 | -6.52 | -5.81
11 | Cc1noc([C@H]2CCN(CC3CC3)C[C@H]2NC(=O)C2CCOCC2)n1 | -0.903 | -0.512 | 1.16 | -1.78 | 1.44
12 | CC(C)CCNC(=O)C1(C)Cn2nc(C(=O)NCc3ccccc3)cc2C(=O)N1C (stereo not given) | 1.44 | 4.38 | 0.972 | -0.857 | -1.72
13 | CC(=O)O[C@H]1[C@H](C)[C@@H](O)[C@H]2[C@@H]1C=C(C(=O)O)[C@H]1C[C@@H]3[C@H]([C@H]21)[C@H]1C(=O)O[C@@H]2CC[C@@]3(C)O[C@]1(O)[C@@H]2C | 1.47 | 4.18 | 3.79 | -8.19 | -0.976
14 | Cc1cccc(CNC(=O)C2(C)Cn3cnc(C(=O)NCc4ccccc4)c3C(=O)N2C2CC2)c1 (stereo not given) | -7.47 | 4.7 | -5.08 | -5.82 | -5.46
15 | CCCn1c(=O)c2ccc(C(=O)NC(C)C)cc2n2c(=O)n(CC(=O)Nc3ccc(C)cc3C)nc12 | 4.9 | 0.019 | -1.15 | 8.02 | 6.57
16 | O=C(c1ccoc1)N1CCCC(n2cc(-c3nc(C4CC4)no3)nn2)C1 (stereo not given) | -2.78 | 1.03 | 0.216 | 2.85 | 14.8
17 | CCC(C)NC(=O)c1ccc2c(=O)n(C(C)C)c3nn(CC(=O)Nc4ccc(Cl)cc4)c(=O)n3c2c1 (stereo not given) | 1.6 | 0.87 | 2.27 | -3.79 | -0.671
18 | Cc1nc(N2CCC(NC(=O)c3sccc3C)CC2)cc(C(F)(F)F)n1 | -3.48 | -1.68 | -0.272 | -0.415 | 4.04
